In PubChem BioAssay AID588342 (National Center for Advancing Translational Sciences (NCATS), 2011):
Hit rate of the full screen: of about 360,000 compounds, about 25,000 (6.9%) were called active. Inconclusive results, whose numbers are uncertain, are shown with a selection of clear calls. Calls follow the shape of the dose curve; as a rule, active = well fitted inhibition curve with a large enough effect; inconclusive = small, poorly fitted or top-dose-only effect; inactive = flat fitted curve, though single readings scatter. Potencies beside an inconclusive call are fits to weak or partial responses and may not hold up.
Also: nearly all actives have a fitted effect of over 55% in size.
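For activity change, negative = inhibition in this document: plate controls were vehicle for no effect and reference inhibitor for full effect.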
Potency is read from the fitted curve at half-maximal effect; tags tell the direction and shape of the fitted curve.

The molecules below were run against Luciferin 4-monooxygenase (Photinus pyralis) (UniProt P08659) (assay: qHTS profiling assay for firefly luciferase inhibitor/activator using purifed enzyme and Km concentrations of substrates (counterscreen for miR-21 project)). Conditions: purified FLuc, luminescence inhibition; activity change, negative = inhibition: at 57.5 µM (top of the series).
UniProt P08659, sequence (P08659 whole entry, looked up): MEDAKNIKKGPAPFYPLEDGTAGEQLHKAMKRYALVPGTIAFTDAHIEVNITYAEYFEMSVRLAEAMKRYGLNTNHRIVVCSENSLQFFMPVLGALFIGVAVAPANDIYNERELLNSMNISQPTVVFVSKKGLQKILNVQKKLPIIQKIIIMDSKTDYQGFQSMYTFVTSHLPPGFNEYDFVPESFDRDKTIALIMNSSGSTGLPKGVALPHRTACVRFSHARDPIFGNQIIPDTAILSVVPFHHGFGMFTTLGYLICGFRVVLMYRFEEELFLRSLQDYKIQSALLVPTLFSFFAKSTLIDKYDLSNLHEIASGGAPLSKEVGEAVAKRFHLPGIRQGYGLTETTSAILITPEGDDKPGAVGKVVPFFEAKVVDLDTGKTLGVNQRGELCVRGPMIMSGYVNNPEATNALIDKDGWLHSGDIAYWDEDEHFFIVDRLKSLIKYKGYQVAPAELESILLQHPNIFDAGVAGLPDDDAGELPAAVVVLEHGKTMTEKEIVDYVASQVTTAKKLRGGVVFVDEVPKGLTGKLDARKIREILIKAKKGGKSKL
Procedure, shortened: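 Purified P. pyralis luciferase (10nM final) with 10uM D-luciferin and 10uM ATP (Km levels) in 50mM Tris acetate pH 7.5, 10mM Mg acetate, 0.01% Tween-20, 0.05% BSA; qHTS 6-point titration, ~60 µM downward; luminescence read.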
For CCOc1cccc(/C=C(/C#N)c2nc3ccccc3[nH]2)c1OCC(=O)O, the Potency was inconclusive: 37.9 µM [inhibitor, partial curve, poor fit]. For COc1ccc(CN(CC2CCCO2)S(=O)(=O)c2ccc(C(=O)O)cc2)cc1OC (centres undefined), the “activity change, negative = inhibition” value was inactive: 0.694%. O=C(CNc1ccccc1C(=O)O)c1ccccc1 was tested, and the Potency was active: 19 µM. O=c1[nH]c(=S)[nH]c2sc3c(c12)CCCCCC3 was tested, and the “activity change, negative = inhibition” value was inactive: -16.6%. In the case of CC(C)c1ccc(/C=N/NC(=O)c2ccccc2Cl)cc1, the Potency is reported as active: 23.9 µM. O=C(NNC(=O)c1ccc(Cl)cc1Cl)c1cnccn1 was tested, and the Potency was inconclusive: 19 µM [inhibitor, partial curve]. For CCCCOc1ccc(C(=O)N/N=C/c2ccc(OCCN3CCCCC3)c(OC)c2)cc1, the Potency was inconclusive: 37.9 µM [inhibitor, partial curve, poor fit]. With COc1cccc(Nc2ccc(N3CCCCC3)cc2)c1OC the Potency was inconclusive: 10 µM [inhibitor, partial curve, poor fit]. In the case of COc1cc2cc3c(N)c(C(=O)NCc4ccco4)sc3nc2cc1OC, the Potency is reported as active: 10.7 µM. For Cc1ccc(C(=O)NC(=S)NCC(=O)c2ccccc2)cc1, the Potency was inconclusive: 15.1 µM [inhibitor, partial curve, poor fit]. With O=C(Nc1ccc(Cl)c(NC(=O)c2cccs2)c1)c1ccco1 the Potency was inconclusive: 23.9 µM [inhibitor, partial curve, poor fit]. For O=c1oc2ccccc2c(Nc2ccc3ncccc3c2)c1[N+](=O)[O-], the Potency was inconclusive: 37.9 µM [inhibitor, partial curve, poor fit]. With CN(C)CCn1c(NC(=O)c2ccc(Cl)cc2)nc2ccccc21 the Potency was inconclusive: 3.79 µM [inhibitor, partial curve, poor fit]. CC(C)c1ccc(C(=O)Nc2ccc(N3CCOCC3)cc2)cc1 was tested, and the Potency was inconclusive: 33.8 µM [inhibitor, single point]. In the case of CCOC(=O)c1sc(NC(=O)C2=COCCO2)c(C#N)c1C, the Potency is reported as inconclusive: 23.9 µM [inhibitor, single point]. In the case of COC(=O)C1=C(C)NC(=O)/C1=C\c1cc(C)n(-c2ccccc2)c1C, the Potency is reported as active: 10.7 µM. In the case of Cn1ccnc1SCC(=O)Nc1ccc2nc(SCC(=O)NC3CC3)sc2c1, the Potency is reported as active: 19 µM. For COc1ccc(NC(=S)Nc2cccc(C)n2)cc1, the Potency was inconclusive: 42.6 µM [inhibitor, partial curve, poor fit]. For O=C(Nc1ccc2[nH]ccc2c1)c1cccs1, the Potency was active: 9.53 µM. In the case of CCc1ccc(CN(C)C(=O)c2cc(COc3ccc(-n4cncn4)cc3)on2)cc1, the Potency is reported as inconclusive: 37.9 µM [inhibitor, partial curve, poor fit]. In the case of O=C(Oc1c(CN2CCOCC2)cc(Cl)c2cccnc12)c1ccccc1Cl, the “activity change, negative = inhibition” value is reported as inactive: -2.87%. In the case of CC(C)(C)OC(=O)NCCCCCNC(=O)c1[nH]cnc1C(=O)Nc1ccon1, the Potency is reported as inconclusive: 26.9 µM [inhibitor, single point]. With CCc1ccc(NC(=O)c2ccc(CNS(=O)(=O)c3ccc4c(c3)C(C)(C)C(=O)N4C)cc2)cc1 the Potency was inconclusive: 3.79 µM [inhibitor, partial curve, poor fit]. For Cc1ccc(/C=N/NC(=O)c2cc(-c3ccc(C)o3)[nH]n2)cc1, the Potency was inconclusive: 33.8 µM [inhibitor, partial curve, poor fit]. With O=C(Cn1c(C(F)(F)F)nc2ccccc21)Nc1ccccc1C(=O)O the Potency was inconclusive: 37.9 µM [inhibitor, partial curve, poor fit]. With CCOC(=O)c1cc(-c2cc3ccccc3o2)n[nH]1 the Potency was active: 19 µM. For COCc1cc(=O)[nH]c(Nc2nc3ccccc3o2)n1, the Potency was inconclusive: 23.9 µM [inhibitor, partial curve]. With CCOc1cccc2sc(=NC(=O)c3ccc(S(=O)(=O)N4CCOCC4)cc3)n(C)c12 the Potency was “inactive”. In the case of CCOc1ccc(-c2nnc3ccc(SCC(=O)N4CCCCC4)nn23)cc1, the “activity change, negative = inhibition” value is reported as inactive: 0.138%. CCOC(=O)c1csc(NC(=O)c2cccs2)n1 was tested, and the Potency was active: 13.5 µM. For Cc1cc(/C=C(\C#N)C(=O)NC2CCCCCC2)c(C)[nH]1, the Potency was inconclusive: 9.53 µM [inhibitor, partial curve, poor fit]. With Cc1ccc(NC(=S)NC(=O)c2ccccc2)cc1NC(=S)NC(=O)c1ccccc1 the “activity change, negative = inhibition” value was inactive: -17.2%. With Cc1cc(N2CCCCC2)n2ncc(-c3ccc(Cl)cc3)c2n1 the Potency was active: 2.39 µM. For COC(=O)c1ccc(CN(c2ccc(C)cc2)S(=O)(=O)c2ccc3c(c2)OCCO3)o1, the “activity change, negative = inhibition” value was inactive: 0.575%. In the case of CC(Sc1nnc(CC(C)c2ccccc2)n1N)C(N)=O (centres undefined), the “activity change, negative = inhibition” value is reported as inactive: -2.16%. CC(=O)Nc1ccc(Nc2nc(C)c([N+](=O)[O-])c(N(C)c3ccccc3)n2)cc1 was tested, and the “activity change, negative = inhibition” value was inactive: -14.8%. N#Cc1c2ccc(O)cc2n2ccccc12 was tested, and the Potency was inconclusive: 26.9 µM [inhibitor, single point]. For O=C(COC(=O)c1ccccc1[N+](=O)[O-])NCCCc1ccccc1, the Potency was inconclusive: 26.9 µM [inhibitor, partial curve]. CC(C)c1ccc(CC(C)C2C3=C(CCCC3=O)OC3=C2C(=O)CCC3)cc1 (centres undefined) was tested, and the “activity change, negative = inhibition” value was inactive: 0.673%. In the case of COC(=O)c1ccc(Oc2nc3c(c(=O)n(C)c(=O)n3C)n2CCC(C)C)cc1, the “activity change, negative = inhibition” value is reported as inactive: 3.74%. c1ccc(CSc2nc3ccccc3[nH]2)cc1 was tested, and the Potency was active: 3.38 µM. For CCSC1=N/C(=C\c2ccc(C(=O)O)cc2)C(=O)S1, the Potency was active: 9.53 µM. With COc1ccc2c(N)c(C(=O)NN)[nH]c2c1 the Potency was active: 16.9 µM. CCCCC(=O)Nc1cc(C)c(NC(=O)c2cccs2)cn1 was tested, and the “activity change, negative = inhibition” value was inactive: 0.193%. For CCOC(=O)C1C(=O)C=C(c2ccc(C)cc2)CC1c1cccc([N+](=O)[O-])c1 (centres undefined), the Potency was active: 10.7 µM. With COC(=O)CCC(=O)c1oc2ccc(OC)cc2c1N the Potency was active: 3.38 µM. With Cc1ccc(C2/C(=C(/O)c3cnn(-c4ccccc4)c3C)C(=O)C(=O)N2CCCN2CCOCC2)o1 (centres undefined) the Potency was inconclusive: 37.9 µM [inhibitor, single point]. CCc1cccc(-n2nnc(-c3nc(-c4ccc5c(c4)OCO5)no3)c2C)c1 was tested, and the Potency was inconclusive: 8.49 µM [inhibitor, partial curve, poor fit]. O=S1(=O)C=C(Sc2nc3cc(Cl)ccc3o2)c2ccccc21 was tested, and the “activity change, negative = inhibition” value was inactive: -17.9%. For O=C(Nn1cnnc1)c1cc2c(s1)CCCCC2, the Potency was active: 6.75 µM. In the case of COc1cc(C)ccc1OCc1cc(C(=O)N(Cc2nccn2C)C(C)C)no1, the Potency is reported as active: 10.7 µM. With COCCN(C(=O)CCC(=O)Nc1ccccn1)C(C(=O)NCCC(C)C)c1ccc(F)cc1 (centres undefined) the “activity change, negative = inhibition” value was inactive: -0.604%. In the case of O=c1cc(C(F)(F)F)nc(-c2ccccc2)[nH]1, the “activity change, negative = inhibition” value is reported as inactive: 2.29%. CCOC(=O)Cn1nc(-c2ccc(Cl)cc2)cc1N was tested, and the Potency was inconclusive: 21.3 µM [inhibitor, single point]. For COc1ccccc1Nc1nc(-c2sc(NC(=O)c3ccc([N+](=O)[O-])cc3)nc2C)cs1, the Potency was inconclusive: 10.7 µM [inhibitor, partial curve]. With CCc1ccc(S(=O)(=O)Nc2cc3c(cc2C)n(C)c(=O)n3C)cc1 the “activity change, negative = inhibition” value was inactive: 2.73%. CCOc1ccc(NC(=O)CSc2oc(-c3ccco3)nc2S(=O)(=O)c2ccc(Cl)cc2)cc1 was tested, and the “activity change, negative = inhibition” value was inactive: 0.569%. With CC1=C(C#N)c2nc(N)c(C#N)c(C)c2/C1=C\c1ccc(-c2ccccc2C(=O)O)o1 the Potency was inconclusive: 21.3 µM [inhibitor, single point]. For S=C(Nc1ccc(Br)cc1Cl)NC1CCN(Cc2ccccc2)CC1, the “activity change, negative = inhibition” value was inactive: 0.728%. In the case of CC(C#N)Sc1ncnc2sc(-c3ccccc3)cc12 (centres undefined), the Potency is reported as inconclusive: 21.3 µM [inhibitor, partial curve, poor fit]. In the case of COc1ccc(C(=O)NNC2=NS(=O)(=O)c3ccccc32)cc1OC, the Potency is reported as active: 15.1 µM. With CCOC(=O)C(C)N1C(=O)S/C(=C/c2cc(C)n(-c3ccncc3)c2C)C1=O (centres undefined) the Potency was inconclusive: 23.9 µM [inhibitor, single point]. CCOc1ccc(N(CC(=O)NCc2ccc(C)cc2)S(=O)(=O)c2c(C)[nH]c(=O)[nH]c2=O)cc1 was tested, and the Potency was inconclusive: 16.9 µM [inhibitor, partial curve]. With COc1cccc(CNC(=O)C2=C(C)C(=O)OC23CCC(C)CC3)c1 (centres undefined) the “activity change, negative = inhibition” value was inactive: 0.528%. With CC(=O)Nc1ccc2c(c1)C(=O)N(c1cccc3ccccc13)C2=O the “activity change, negative = inhibition” value was inactive: -1.65%. In the case of CCOC(=O)N1CCc2c(sc(NCc3ccc(N(C)C)cc3)c2C(=O)Nc2ccccc2OCC)C1, the Potency is reported as inconclusive: 37.9 µM [inhibitor, partial curve, poor fit]. With Nc1ccc2nc(-c3ccc(Cl)cc3)[nH]c2c1 the Potency was active: 1.9 µM. With CNc1oc(-c2ccc(OCc3ccccc3)cc2)nc1C#N the Potency was inconclusive: 10.7 µM [inhibitor, partial curve]. In the case of O=C(CN1C(=O)C2CC=CCC2C1=O)Nc1nc2ccccc2s1 (centres undefined), the Potency is reported as inconclusive: 37.9 µM [inhibitor, partial curve, poor fit]. In the case of O=[N+]([O-])c1ccc(OCc2cnc(Cl)s2)c([N+](=O)[O-])c1, the Potency is reported as inconclusive: 26.9 µM [inhibitor, partial curve, poor fit]. For O=c1oc2c(CN3CCCCC3)c(O)ccc2c2c1CCCCC2, the Potency was inconclusive: 26.9 µM [inhibitor, partial curve, poor fit]. Cc1cc(NC(=O)CSc2nc3[nH]c(=O)cc(O)c3s2)ccc1Br was tested, and the Potency was inconclusive: 37.9 µM [inhibitor, single point]. NC(=O)C1CCN(C(=O)c2ccccc2NC(=O)c2nsc3ccccc23)CC1 was tested, and the Potency was inconclusive: 26.9 µM [inhibitor, single point]. With CC(C)(C)C(=O)Nc1cc(S(=O)(=O)Nc2ccc(Cl)cc2)ccc1O the Potency was inconclusive: 30.1 µM [inhibitor, partial curve, poor fit].
